Results taken from PubChem BioAssay AID588501 (NMMLSC, 2011).
About 420 (0.12%) of roughly 360,000 compounds were called active. The shares of active, inactive and inconclusive entries below differ from those in the screen. Cut-off read from the data, not from the text of the source: active = inhibition above about 30%; inconclusive = no clear call, values can overlap the other calls; inactive = below that.

Each compound was assayed against Lethal factor (Bacillus anthracis) (UniProt P15917) (assay: anthrax lethal factor cleavage blockers – biochemical, multiplex microsphere, MLPCN library, primary screen (AID 588501; note: plate controls were buffer without enzyme for full effect and enzyme alone for no effect)). Settings: multiplex microsphere protease cleavage assay, LF; at 10 µM; hits give high values.
UniProt P15917, sequence (P15917 whole entry, looked up): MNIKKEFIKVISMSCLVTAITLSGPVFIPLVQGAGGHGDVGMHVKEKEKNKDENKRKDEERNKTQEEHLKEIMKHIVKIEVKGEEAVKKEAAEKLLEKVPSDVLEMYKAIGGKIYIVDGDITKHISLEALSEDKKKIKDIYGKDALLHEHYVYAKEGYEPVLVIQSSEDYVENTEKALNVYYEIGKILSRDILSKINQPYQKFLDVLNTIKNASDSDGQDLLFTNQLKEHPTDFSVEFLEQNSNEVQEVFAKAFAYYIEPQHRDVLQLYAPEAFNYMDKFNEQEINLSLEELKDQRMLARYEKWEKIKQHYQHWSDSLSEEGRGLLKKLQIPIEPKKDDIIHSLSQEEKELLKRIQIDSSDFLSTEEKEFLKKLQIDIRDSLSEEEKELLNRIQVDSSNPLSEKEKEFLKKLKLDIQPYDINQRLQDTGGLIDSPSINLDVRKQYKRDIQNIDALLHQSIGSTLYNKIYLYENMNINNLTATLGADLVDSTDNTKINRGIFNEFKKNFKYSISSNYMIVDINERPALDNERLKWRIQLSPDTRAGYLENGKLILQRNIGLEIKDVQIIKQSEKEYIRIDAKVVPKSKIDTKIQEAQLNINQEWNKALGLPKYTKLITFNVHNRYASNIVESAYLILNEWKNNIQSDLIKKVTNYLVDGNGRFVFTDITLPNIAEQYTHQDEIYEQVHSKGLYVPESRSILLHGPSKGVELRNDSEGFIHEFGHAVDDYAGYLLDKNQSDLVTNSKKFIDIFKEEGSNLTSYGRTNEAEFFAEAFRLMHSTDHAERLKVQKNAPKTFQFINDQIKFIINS

Structure (SMILES)	inhibition
Cc1n[nH]c(=O)c2c(NC(=O)CSc3nnnn3-c3ccccc3)oc(C)c12	inconclusive: -3.7%
NC(=O)C1CCN(C(=O)CNC(=O)c2ccc(Br)o2)CC1	inconclusive: -10.2%
Cc1ccccc1-c1nc(S(=O)(=O)c2ccccc2)c(N2CCCC2)o1	inconclusive: -3.9%
CCOc1ccc(OCCC(=O)N(CCC2=CCCCC2)c2c(N)n(Cc3ccccc3)c(=O)[nH]c2=O)cc1	inconclusive: 1.7%
COc1ccc(NC(=O)C2CC(c3ccc(Cl)cc3)=NO2)cc1 (stereo not given)	active: 45.4%
CC(C)(C)NC(=O)CN(C(=O)CCC(=O)Nc1nccs1)c1cccc(C(F)(F)F)c1	inactive: -0.7%
O=C(Nc1ccc(N2CCOCC2)nc1)c1c(F)cccc1F	inconclusive: -5%
Cc1cccc(NC(=O)CN(C)S(=O)(=O)c2ccc(Br)cc2)n1	inactive: -4%
Cc1sc2ncnc(N3CCC(C(=O)Nc4nc(-c5cccs5)cs4)CC3)c2c1C	inconclusive: 5.2%
CC(=O)NCc1nc2ccccc2n1C(C)C	inactive: 2.9%
O=C(/C=C/c1cccc(Cl)c1)c1nc2ccccc2[nH]1	inactive: 0.8%
CC(C)c1ccc(N(CC(=O)NCCSC(C)(C)C)S(C)(=O)=O)cc1	inconclusive: -20.4%
NS(=O)(=O)c1ccc(NC(=O)CSc2nc3c(cnn3-c3ccccn3)c(=O)[nH]2)cc1	inactive: -0.3%
CNc1nc(-c2c[nH]c3ccccc23)cs1	inconclusive: 13.4%
COc1ccc(-n2c(N3CCN(C)CC3)nc3sc4c(c3c2=O)CCCCC4)cc1	inconclusive: -8.5%
C[C@@H](O)C1NC(=O)[C@H](CCCCN)NC(=O)c2cc([N+](=O)[O-])cc(I)c2OCC[C@@H](C(N)=O)NC1=O (stereo not given in full)	inactive: -5.3%
CCOc1ccc(Cn2c3ccc(OC)cc3c3nc4ccccc4nc32)cc1OC	inactive: 2.7%
COc1ccc(CCNC(=S)NC(=O)c2cccc(Cl)c2)cc1OC	inconclusive: -9.4%
Cc1ccc(OCC2Cn3c(nc4c3c(=O)[nH]c(=O)n4C)O2)cc1C (stereo not given)	active: 31.3%
CCS(=O)(=O)Nc1cccc(C2=NN(S(=O)(=O)c3ccccc3)C(c3cccs3)C2)c1 (stereo not given)	inactive: 0%
Cc1ccccc1CN1CCN(CC(=O)NC(C)c2ccccc2)CC1 (stereo not given)	inactive: -1.8%
CCCN(C(=O)c1ccc(N2CCCC2=O)cc1)c1c(N)n(Cc2ccccc2)c(=O)[nH]c1=O	inconclusive: 2.2%
CN(CCCNC(=O)C1CCC(=O)N1Cc1ccccc1Cl)c1ccccc1 (stereo not given)	inactive: -0.9%

Structure (SMILES)	inhibition
S=C(NC1CCCCC1)NC1CC2C=CC1C2 (stereo not given)	inconclusive: -33.5%
CC(NC(=O)CSC(=S)N(C)C)C12CC3CC(CC(C3)C1)C2 (stereo not given)	inactive: -0.9%
O=C1C=Cc2cccc3ccc(O)c1c23	active: 38%
CCCC1=NN2C(=N)/C(=C\c3cc(C)n(Cc4ccccc4)c3C)C(=O)N=C2S1	inconclusive: 4.2%
CCCCn1c(=NC(=O)c2ccc3c(c2)OCO3)c(C#N)cc2c(=O)n3cccc(C)c3nc21	active: 49%
CN(C1CCCCC1)S(=O)(=O)c1ccc(-c2ccccn2)s1	inconclusive: -27.4%
O=c1c2ccccc2nc2n1CCS2(=O)=O	inconclusive: -35.7%
O=C1OC=NC1=Cc1ccccc1	inactive: -1.5%
CCCCCCCn1c(=N)n(CC(O)c2ccco2)c2ccccc21 (stereo not given)	inconclusive: -5.7%
CCc1oc(C(=O)O)cc1CN(CC)CC	inconclusive: 16.3%
COCc1cc(CN2CCN(C)CC2)c(O)c2ncccc12	inconclusive: -14.9%
CCC1(c2ccc(OC)cc2)NC(=O)N(CC(=O)N2CCc3ccccc32)C1=O (stereo not given)	inconclusive: 23.4%
COC(=O)c1ccc(OCC2c3cc(OC)c(OC)cc3CCN2C(C)=O)cc1 (stereo not given)	inactive: 6.6%
Cc1ccccc1OCCCCN1CCCCC1	inactive: 9%
CCN(CC)CCNc1ccnc2cc(Cl)ccc12	inactive: -0.5%
CCc1cc(C(=O)c2ccc(Br)cc2)c(NC(=O)CN(CC)CC)s1	active: 31.8%
CC(C)C(c1nnnn1C(C)(C)C)N1CCC(Cc2ccccc2)CC1 (stereo not given)	inconclusive: 3%
C/C(=N\NC(N)=O)c1cc(Cl)cc(Cl)c1O	inconclusive: 1%
CC(C)Sc1nnc([C@H](Cc2ccccc2)NC(=O)OC(C)(C)C)o1	inconclusive: -12.3%
O=C(CCNC(=O)c1ccc(Cl)cc1)NCc1cccc(C(F)(F)F)c1	inconclusive: -8.4%
O=C(NCCc1ccc(F)cc1)c1cccc2c1C(=O)c1ccc(N3CCC(Cc4ccccc4)CC3)cc1S2(=O)=O	active: 40.7%
CCc1c(C)nc2ncnn2c1Nc1ccc(C)cc1	inactive: -2.5%
CN(C)CCNC(=O)c1cccc2nc3c(ccc4ccccc43)nc12	active: 42.2%

Structure (SMILES)	inhibition
C[C@H]1CCC(=O)N([C@H](CN=[N+]=[N-])Cc2ccccc2)CC1	inactive: -0.8%
Cc1sc2nc(CSCC(=O)Nc3c(F)cccc3F)[nH]c(=O)c2c1C	inconclusive: -32.3%
CC(C)Oc1ccc(S(=O)(=O)N2CCOCC2)cc1NC(=O)C1CSC2(C)CCC(=O)N12 (stereo not given)	inconclusive: -6.9%
CCCCn1c(-c2ccc(Cl)c(Cl)c2)nc2cc3[nH]c(=O)c(C(C)C)nc3cc21	inactive: -0.2%
Cc1cccc(-n2c(SCC(=O)NCc3ccco3)nc3ccccc3c2=O)c1	inconclusive: -14%
Cc1cc(F)ccc1NC(=O)C1CSC2(C)CCC(=O)N12 (stereo not given)	inconclusive: 2.7%
Cn1c(=O)c2c(nc(NCCCN3CCOCC3)n2Cc2ccc(Cl)cc2)n(C)c1=O	inconclusive: -3.3%
CCN1CCc2c(sc(NC(=O)c3ccc(S(=O)(=O)N(C)c4ccccc4)cc3)c2C(=O)NC)C1	inconclusive: 27.1%
Cc1ccc(NNC(=O)Nc2ccc(Cl)cc2)nn1	inconclusive: -13.5%
CCOc1ccc(NC(=O)CC2C(=O)N(c3ccccc3)C(=O)N2Cc2ccco2)cc1 (stereo not given)	inconclusive: 5.3%
CC(Oc1ccc(F)cc1)C(=O)N(Cc1ccccc1)c1c(N)n(Cc2ccccc2)c(=O)[nH]c1=O (stereo not given)	inconclusive: -2.2%
O=C(NCCS(=O)(=O)NCc1cccnc1)c1ccccc1	inconclusive: -3.8%
COc1ccc(-c2nnc(SCc3c(C)noc3C)n2N)cc1OC	inactive: 0.5%
CC(=O)Nc1cccc(C(=O)Nc2ccc(S(=O)(=O)NC3=NCCCCC3)cc2)c1	inconclusive: -3%
CCOC(=O)c1cc(-c2ccccc2)sc1NC(=O)C(C)Sc1nnc(N)s1 (stereo not given)	inactive: -1.2%
O=c1oc2ccccc2c2c1ncn2CCN1CCOCC1	inconclusive: -34.6%
CC(=O)c1ccc(OCC(=O)N(C2CCCCC2)C2CCS(=O)(=O)C2)cc1 (stereo not given)	inconclusive: -3.9%
CC/C(O)=C(\C#N)c1nnc2n1CCCCC2	inactive: 0.1%
CNC(=S)NNC(=O)Cc1ccccc1	inconclusive: -5.9%
CCN(CC)P(=O)(NC(=O)C(Cl)(Cl)Cl)N(CC)CC.[Cl-].[Cl-].[Cl-].[Nd+3]	inconclusive: -10.5%
CC(C)N(Cc1cnn(C)c1)C(=O)c1ccc(OC2CCN(Cc3ccccn3)CC2)cc1	inactive: 0.8%
COc1ccc(Cl)cc1NC(=O)CN(C)C(=O)Cn1c(=O)oc2ccccc21	inconclusive: -3.2%
CN(C)c1nc(-c2cn(CCC#N)c3ccccc23)cs1	inconclusive: 39.5%

Structure (SMILES)	inhibition
CCOC(=O)C1C(c2cccc(Cl)c2Cl)NC(=O)NC1(O)C(F)(F)F (stereo not given)	inconclusive: -24%
c1ccc(CCNc2nc3ccccc3s2)cc1	inconclusive: -6.6%
O=C(OCc1ccccc1)c1cn(-c2ccccc2)nc1-c1ccncc1	inconclusive: 5.5%
Cc1ccc(NC(=O)CCC(=O)c2cc(C)sc2C)nc1	inconclusive: -3.6%
CN(C)/C=C1/C(=O)Nc2ccccc21	inconclusive: -4.8%
CCCCC(=O)NCc1ccc2c(c1)cc(C)n2C	active: 46.7%
O=C(Nc1ccccc1C(=O)O)c1cc(S(=O)(=O)Nc2cccc(F)c2)ccc1Cl	inactive: 2.3%
CCc1nnc(NC(=O)CN2CCN(Cc3ccccc3Cl)CC2)s1	active: 42.3%
CCC1(C)Cc2c(sc3nn[nH]c(=O)c23)CO1 (stereo not given)	inactive: -0.6%
O=C(Nc1cccn(Cc2c(Cl)cccc2Cl)c1=O)c1c(Cl)cccc1Cl	inconclusive: -23.7%
CC1CCCC(N2CCN(C(=O)c3ccccc3F)CC2)C1 (stereo not given)	active: 37.8%
COc1cc(C)ccc1OCc1cc(C(=O)N2CCCCCCC2)no1	inactive: -2.5%
CCOc1ccccc1OCC(=O)Nc1nnc(COC)s1	inconclusive: 10.1%
COc1ccc(N(C(=O)c2snc(C(N)=O)c2N)C(C(=O)NC2CCCC2)c2ccco2)c(OC)c1 (stereo not given)	inactive: -3%
Cc1ccc(S(=O)(=O)N2CCCCC2)cc1NC(=O)C1CC1	inconclusive: -0.9%
CCC1=NN2C(=N)/C(=C\c3ccc(OCCOc4ccc(NC(C)=O)cc4)cc3)C(=O)N=C2S1	active: 51.4%
CN(CC(=O)Nc1ccc(F)cc1)C(=O)COC(=O)/C=C/c1ccc(OC(F)F)cc1	inconclusive: 4.7%
Cc1cccc(C)c1NC(=O)CN1CCN(C(=O)c2cc(C3CC3)nn2-c2ccccc2)CC1	inactive: -6.1%
Cc1ccc2nc(SCC(=O)NCCc3ccccc3)nc(=O)n2c1	inconclusive: -3.8%
Cc1ccc(S(=O)(=O)CC(=O)N(CCCN(C)C)c2nc3ccc(C)cc3s2)cc1	inconclusive: 3.3%
CC1CCN(CCCNC(=O)COc2cc(=O)n(C)c3ccccc23)CC1	inconclusive: -0.5%
